Source: patent US5026687A (priority 1990, dated 1991)

Test system: human immunodeficiency virus-associated neurological dysfunction
Assay: Cognitive function in patients with HIV-associated neurological dysfunction
Conditions: same patient, after 6 weeks

OC[C@@H]1CC[C@H](n2cnc3c(O)ncnc32)O1 [2',3'-dideoxyinosine]
speed of completion of the Trailmaking A test (from 25): 18 s | speed of completion of the Trailmaking B test (from 96): 80 s
